Experimental data from PubChem BioAssay (NCATS).
The inconclusive results got no clear call from the source; some entries with a clear call stand among them for comparison. No potency is given beside an inconclusive call; the fits are too rough. The source made the active and inactive calls. Calls come from the whole dose curve; as a rule, active = well fitted inhibition curve with a large enough effect; inconclusive = small, poorly fitted or top-dose-only effect; inactive = no such curve, though single readings can be large or run the other way.

Tests used:
[1] = qHTS Screen of the MIPE 4.0 Collection Against Ewings Sarcoma (RDES) (AID 1259252); note: nearly all actives have a fitted effect of over 35% in size
Procedure, shortened: (§1)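 Here, cells in 5% FBS RPMI were exposed for two days (48 h) to compound dilutions added four hours after plating. ATP-based CellTiter-Glo luminescence measured viability, normalized to vehicle and no-cell blanks.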

[2] = qHTS Screen of the MIPE 4.0 Collection Against Ewings Sarcoma (TC71) (AID 1259253); note: nearly all actives have a fitted effect of over 40% in size
Procedure, shortened: as §1

[3] = qHTS Screen of the MIPE 4.0 Collection Against Ewings Sarcoma (EW8) (AID 1259255); note: nearly all actives have a fitted effect of over 35% in size
Procedure, shortened: as §1
Potency is the fitted concentration of half-maximal effect; tags give direction and shape of the fitted curve.

Structure (SMILES) | Potency [1] | Potency [2] | Potency [3]
c1cnc2cc3c(cc2n1)C1CNCC3C1 | inactive | inactive | 
COC(=O)N[C@H](C(=O)N1CCC[C@@H]1c1ncc(-c2ccc(-c3ccc(-c4cnc([C@@H]5CCCN5C(=O)[C@@H](NC(=O)OC)C(C)C)[nH]4)cc3)cc2)[nH]1)C(C)C | inconclusive [inhibitor, single point] | inconclusive [inhibitor, single point] | 
Cc1cccc(Nc2ccncc2S(=O)(=O)NC(=O)NC(C)C)c1 | inactive | inactive | inactive
O=C(O)[C@H]1O[C@H](Oc2cc3oc(-c4ccccc4)cc(=O)c3c(O)c2O)[C@H](O)[C@@H](O)[C@H]1O | inconclusive [inhibitor, single point] | inconclusive [inhibitor, single point] | inconclusive [inhibitor, single point]
COc1ccccc1N1CCN(CCN(C(=O)C2CCCCC2)c2ccccn2)CC1 | inactive | inactive | 
NCCc1cnc[nH]1 | active: 5.9 µM | inconclusive [inhibitor, single point] | inactive
Cc1nc(Nc2n[nH]c3c2CN(C(=O)N[C@H](CN(C)C)c2ccccc2)C3(C)C)c2sccc2n1 | active: 3.32 µM | active: 1.32 µM | 
N=C1SC(=Cc2ccc(-c3ccc4c(c3)C(=O)NC4=O)o2)C(=O)N1c1ccc(Br)cc1 | inconclusive [inhibitor, partial curve, poor fit] | active: 20.9 µM | inactive
COc1cc([C@@H]2c3cc4c(cc3[C@H](O)[C@H]3COC(=O)[C@@H]23)OCO4)cc(OC)c1OC | active: 0.0743 µM | active: 0.187 µM | 
C[C@H](NC(=O)Cc1cc(F)cc(F)c1)C(=O)N[C@H](C(=O)OC(C)(C)C)c1ccccc1 | inactive | inactive | inactive
CN(N=O)C(=O)N[C@H]1C(O)OC(CO)[C@@H](O)[C@H]1O (stereo partly specified) | inactive | inactive | 
CC(S)C(=O)NCC(=O)O (stereo unspecified) | inconclusive [inhibitor, single point] | inconclusive [inhibitor, single point] | inactive
CCCCCCCCCCCCCCCC(=O)OC[C@@H](NC(=O)C(Cl)Cl)[C@H](O)c1ccc([N+](=O)[O-])cc1 | inactive | inactive | inactive
Clc1ccc(COC(Cn2ccnc2)c2ccc(Cl)cc2Cl)cc1 (stereo unspecified) | inconclusive [inhibitor, single point] | inconclusive [inhibitor, single point] | inconclusive [inhibitor, single point]
Cc1ccc(O)c(C(CCN(C(C)C)C(C)C)c2ccccc2)c1 (stereo unspecified) | inactive | inactive | 
CCCC(CCC)C(=O)O | inactive | inactive | 
N[C@@]1(C(=O)O)CS(=O)(=O)[C@H]2[C@H](C(=O)O)[C@H]21 | inconclusive [inhibitor, partial curve] | inconclusive [inhibitor, partial curve] | inconclusive [inhibitor, partial curve, poor fit]
C#CCN[C@@H]1CCc2ccccc21 | inactive | inactive | 
CO[C@H]1/C=C\O[C@@]2(C)Oc3c(C)c(O)c4c(O)c(c5c(nc6cc(C)ccn65)c4c3C2=O)NC(=O)C(C)=CC=C[C@H](C)[C@H](O)[C@@H](C)[C@@H](O)[C@@H](C)[C@H](OC(C)=O)[C@H]1C | inactive | inconclusive [inhibitor, single point] | inconclusive [inhibitor, single point]
CCNC(=O)c1cc2c(-c3cc(OCCN4CCCC4)c(Cl)cc3Cl)nc(N)nc2s1 | active: 1.18 µM | active: 1.32 µM | 
CC(=O)OCC(CCn1cnc2cnc(N)nc21)COC(C)=O | inactive | inactive | inactive
Cc1cc(O)c2c(c1)C(=O)c1cccc(O)c1C2=O | inactive | inactive | 
COc1ccc(Nc2nccc(NCCO)n2)cc1 | inactive | inactive | inactive
CC1(C)[C@H](O[C@H]2O[C@H](C(=O)O)[C@@H](O)[C@H](O)[C@H]2O[C@@H]2O[C@H](C(=O)O)[C@@H](O)[C@H](O)[C@H]2O)CC[C@@]2(C)[C@H]1CC[C@]1(C)[C@H]2C(=O)C=C2[C@H]3C[C@@](C)(C(=O)O)CC[C@]3(C)CC[C@]21C | inactive | inactive | inactive
